Laboratory results from the supplement of paper PMC8748497.
Several values for one entry are separate records, joined by “and”; a condition that tells them apart may be missing. Identical values can stand only once. Some of the results follow.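 Rule for the calls: active = GRHL reporter fold change of at least 2 over DMSO at 10 µM; inactive = below 2-fold.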 Repeats are few or missing, and single values can be far off.

tested on: HEK293 GRHL-luciferase reporter; test: GRHL luciferase reporter activity, fold change over DMSO control; higher = stronger GRHL reporter activation; conditions: 10 µM; 24 h
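Note: stable HEK293 line carrying repeated GRHL consensus sites upstream of a minimal promoter driving luciferase, luminescence read 24 h post-treatment, normalized to 0.5% DMSO vehicle wells.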

GRHL luciferase reporter activity, inactive:
CC(=O)[C@H]1CC[C@H]2[C@@H]3CCC4=CC(=O)CC[C@]4(C)[C@H]3CC[C@]12C 0.57, NCCc1c[nH]cn1 1.02, Cn1c(=O)c2c(ncn2CC(=O)O)n(C)c1=O 0.905, COc1ccc2c(=O)ccoc2c1 1.12, CCn1cc(C(=O)O)c(=O)c2cc(F)c(N3CCN(C)CC3)cc21 1.09, C=CCc1ccc(O)c(OC)c1 1.5, COc1cc2c(cc1OC)-c1cc3ccc(OC)c(OC)c3c[n+]1CC2 0.879 and 0.733, O=C1O[C@H](CO)[C@@H](O)[C@H](O)[C@H]1O 1.06, CC1CCc2c(N3CCC(O)CC3)c(F)cc3c(=O)c(C(=O)O)cn1c23 (stereo not given) 0.857, O=c1c(O)c(-c2ccccc2)oc2cc(O)cc(O)c12 1.41, Nc1ccn([C@@H]2CS[C@H](CO)O2)c(=O)n1 0.931, CC(C)c1ccc2c(c1)CC[C@H]1[C@](C)(CN)CCC[C@]21C 0.0766, CC(=O)Nc1cccc(O)c1 1.02, CC(=O)O[C@H]1C[C@@H]2CC[C@@H]3[C@H](CC[C@@]4(C)[C@H]3C[C@H]([N+]3(C)CCCCC3)[C@@H]4OC(C)=O)[C@@]2(C)C[C@@H]1N1CCCCC1 1.06, CC(=O)[C@@]1(O)CC[C@H]2[C@@H]3C[C@H](C)C4=CC(=O)C=C[C@]4(C)[C@@]3(F)[C@@H](O)C[C@@]21C 1.24
